PubChem BioAssay AID504333 (National Center for Advancing Translational Sciences (NCATS), 2011)
Screen size: about 360,000 compounds; about 16,000 (4.4%) were called active. The inconclusive results got no clear call from the source; some entries with a clear call stand among them for comparison. Calls come from the whole dose curve; as a rule, active = well fitted inhibition curve with a large enough effect; inconclusive = small, poorly fitted or top-dose-only effect; inactive = no such curve, though single readings can be large or run the other way. Potencies of inconclusive entries are doubtful fits and often do not repeat.

target: Bromodomain adjacent to zinc finger domain protein 2B (Homo sapiens) (UniProt Q9UIF8); experiment: qHTS Assay for Inhibitors of BAZ2B; details: AlphaScreen BAZ2B-H3K14Ac peptide displacement; series mostly up to 114 µM; note: nearly all actives have a fitted effect of over 60% in size
UniProt Q9UIF8, sequence (Q9UIF8 whole entry, looked up, the tested form may be a part): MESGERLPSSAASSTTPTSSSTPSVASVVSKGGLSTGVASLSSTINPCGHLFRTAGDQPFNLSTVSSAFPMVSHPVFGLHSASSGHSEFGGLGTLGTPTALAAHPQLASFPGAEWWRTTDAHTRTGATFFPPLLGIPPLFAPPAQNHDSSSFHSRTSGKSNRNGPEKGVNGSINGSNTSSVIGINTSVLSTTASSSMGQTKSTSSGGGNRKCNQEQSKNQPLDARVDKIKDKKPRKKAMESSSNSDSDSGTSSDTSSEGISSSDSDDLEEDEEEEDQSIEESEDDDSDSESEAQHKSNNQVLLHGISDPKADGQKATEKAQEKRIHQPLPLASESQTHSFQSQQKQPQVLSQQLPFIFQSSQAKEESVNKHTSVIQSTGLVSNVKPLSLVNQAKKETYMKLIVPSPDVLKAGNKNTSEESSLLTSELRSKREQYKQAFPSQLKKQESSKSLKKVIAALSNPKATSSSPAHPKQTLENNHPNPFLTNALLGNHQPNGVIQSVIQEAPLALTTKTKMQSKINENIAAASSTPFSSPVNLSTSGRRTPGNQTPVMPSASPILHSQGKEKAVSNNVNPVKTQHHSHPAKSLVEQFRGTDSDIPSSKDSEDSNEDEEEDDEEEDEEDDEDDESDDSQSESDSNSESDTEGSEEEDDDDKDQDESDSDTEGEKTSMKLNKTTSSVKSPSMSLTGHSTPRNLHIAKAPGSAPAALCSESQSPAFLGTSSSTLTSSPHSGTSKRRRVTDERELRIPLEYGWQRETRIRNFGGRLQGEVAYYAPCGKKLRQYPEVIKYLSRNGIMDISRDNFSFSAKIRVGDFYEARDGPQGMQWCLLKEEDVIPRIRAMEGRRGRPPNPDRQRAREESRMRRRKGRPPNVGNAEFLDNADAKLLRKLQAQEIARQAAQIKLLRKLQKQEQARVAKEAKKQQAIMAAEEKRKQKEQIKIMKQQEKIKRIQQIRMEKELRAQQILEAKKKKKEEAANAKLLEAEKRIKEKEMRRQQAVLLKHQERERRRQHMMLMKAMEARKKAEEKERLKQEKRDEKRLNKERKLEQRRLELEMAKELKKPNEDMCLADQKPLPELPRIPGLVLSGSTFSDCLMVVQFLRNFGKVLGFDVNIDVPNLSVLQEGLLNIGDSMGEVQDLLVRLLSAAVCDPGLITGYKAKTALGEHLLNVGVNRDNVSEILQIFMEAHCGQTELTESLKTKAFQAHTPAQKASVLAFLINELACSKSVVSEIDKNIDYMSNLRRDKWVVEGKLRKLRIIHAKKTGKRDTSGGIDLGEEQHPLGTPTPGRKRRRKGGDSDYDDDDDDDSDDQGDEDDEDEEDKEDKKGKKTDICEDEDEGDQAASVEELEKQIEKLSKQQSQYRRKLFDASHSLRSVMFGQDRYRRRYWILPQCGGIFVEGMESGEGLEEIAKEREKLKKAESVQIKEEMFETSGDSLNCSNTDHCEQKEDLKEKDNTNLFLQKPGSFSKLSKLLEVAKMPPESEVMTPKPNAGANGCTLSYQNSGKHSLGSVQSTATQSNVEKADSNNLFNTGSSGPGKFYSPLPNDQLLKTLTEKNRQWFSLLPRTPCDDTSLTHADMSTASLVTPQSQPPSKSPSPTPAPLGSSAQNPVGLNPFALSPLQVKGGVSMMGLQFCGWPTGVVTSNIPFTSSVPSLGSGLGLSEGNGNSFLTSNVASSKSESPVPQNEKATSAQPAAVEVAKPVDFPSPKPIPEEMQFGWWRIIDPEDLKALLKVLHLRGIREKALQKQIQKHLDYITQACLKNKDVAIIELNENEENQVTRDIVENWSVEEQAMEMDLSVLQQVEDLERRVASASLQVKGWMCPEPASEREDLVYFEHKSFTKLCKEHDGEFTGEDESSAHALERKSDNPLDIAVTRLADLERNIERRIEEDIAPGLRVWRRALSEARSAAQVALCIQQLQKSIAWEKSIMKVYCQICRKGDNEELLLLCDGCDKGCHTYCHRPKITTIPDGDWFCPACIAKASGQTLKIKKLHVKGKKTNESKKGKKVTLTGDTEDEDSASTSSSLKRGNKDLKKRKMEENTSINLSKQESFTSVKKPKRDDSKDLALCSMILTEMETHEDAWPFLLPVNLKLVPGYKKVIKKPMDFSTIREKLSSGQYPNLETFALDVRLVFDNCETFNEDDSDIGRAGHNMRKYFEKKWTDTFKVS
Outline: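 In this displacement format the biotinylated H3(5-23) peptide acetylated at Lys14 serves as ligand at 50 nM, with BAZ2B at 50 nM in PBS pH 7.4 containing 0.01% Tween-20. Donor and acceptor beads are 10 ug/mL final.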
Potency is the fitted concentration of half-maximal effect; tags give direction and shape of the fitted curve.

For `Cc1ccc(Nc2c(-c3ccco3)nc3ccccn23)cc1`, which Potency is on record?
The Potency was inconclusive: 28.2 µM [inhibitor, full curve].

How did the Potency turn out when `c1ccc(CN2CCN(c3ncccn3)CC2)cc1` was run?
The Potency was inconclusive: 89.1 µM [inhibitor, single point].

How did the Potency turn out when `S=C1NCCc2ccc(Cl)cc2C1c1ccccc1` (stereo not drawn) was run?
Its Potency is active: 39.8 µM.

`NS(=O)(=O)c1ccc2nc(NC(=O)c3ccc4ncsc4c3)sc2c1` was tested. Which Potency did it give?
Its Potency is inconclusive: 56.2 µM [inhibitor, partial curve].

`Cc1ccc(CN2CCN(/N=C/c3ccc(C(=O)O)cc3)CC2)c(C)c1` was tested. Which Potency did it give?
Its Potency is inconclusive: 79.4 µM [inhibitor, single point].

Which Potency does the source give for `COc1ccccc1/C=C/c1nc(C#N)c(NCCc2ccccc2)o1` here?
Its Potency is inconclusive: 20 µM [inhibitor, full curve].

`CSc1nc(Oc2ccc(=O)n(C)n2)nc(N(C)C)n1` was tested. Which Potency did it give?
Its Potency is inconclusive: 79.4 µM [inhibitor, single point].

With `O=C(CNC(=O)c1cccc(OC(F)F)c1)OCc1cc(=O)n2cc(Br)ccc2n1` as the compound, how does the Potency read?
Its Potency is inconclusive: 44.7 µM [inhibitor, partial curve].

With `[O-]/C(=C(\C(=S)NCc1ccccc1)[n+]1ccccc1)c1ccc(Cl)s1` as the compound, how does the Potency read?
The Potency was inconclusive: 28.2 µM [inhibitor, partial curve].

`CCOc1ccc(NCc2cccn2-c2nnc(N3CCC(C(=O)NCCOC)CC3)s2)cc1` was tested. Which Potency did it give?
The Potency was inconclusive: 50.1 µM [inhibitor, partial curve].

For `O=C(NC(=S)Nc1ccccc1N1CCOCC1)c1ccc(-c2ccccc2F)o1`, which Potency is on record?
Its Potency is inconclusive: 12.6 µM [inhibitor, full curve, poor fit].

How did the Potency turn out when `Cc1ccc(S(=O)(=O)N2CCC(C(=O)Nc3ccc4c(c3)OCO4)CC2)cc1` was run?
Its Potency is inconclusive: 11.2 µM [inhibitor, single point].

How did the Potency turn out when `O=C(Nc1nccs1)c1cnccn1` was run?
Its Potency is inconclusive: 89.1 µM [inhibitor, single point].

`O=C(Cc1ccc(Br)cc1)Nc1ccccc1N1CCCC1` was tested. Which Potency did it give?
The Potency was inconclusive: 35.5 µM [inhibitor, partial curve].

How did the Potency turn out when `COc1ccc(C(=O)NC(=S)NCc2ccco2)cc1Br` was run?
The Potency was inconclusive: 44.7 µM [inhibitor, partial curve].

For `Cc1cc(S(=O)(=O)NCC(C)C)ccc1OCC(=O)NCc1ccccn1`, which Potency is on record?
Its Potency is inconclusive: 100 µM [inhibitor, single point].

How did the Potency turn out when `Cn1c(SCc2ccc(F)cc2)nnc1-c1ccccn1` was run?
Its Potency is active: 50.1 µM.

Which Potency does the source give for `Cc1c(C(=O)NCc2ccco2)sc2nc(-c3ccccc3)cn12` here?
Its Potency is inconclusive: 89.1 µM [inhibitor, single point].
